The supplement of paper PMC10338343
± gives the standard deviation. Over roughly 3,700 sequences, “pre-steady-state target cleavage rate” has its median near 0.02; the highest 2% begin near 0.23. The list shows a part of the results, in another mix than the full data.

Test system: MILI (PIWIL2) piRISC loaded with Kctd7 piRNA (26 nt)
Test: pre-steady-state target cleavage rate (min^-1); MIWI and MILI are mouse PIWI proteins and EfPiwi is from a freshwater sponge; tags in brackets are library labels; higher = faster piRNA-guided slicing of the target
Details: guide: Kctd7 piRNA 5'p-UGUUAAUCUCUCAGAGAAGGUGACAG; auxiliary factor: 500 nM mouse GTSF1
Method in brief: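 Three pooled Cleave-'n-Seq trials supplied the data, with k3 capped at 0.0001 min^-1. In each, […] transcribed, DNA-blocked target RNA library and 1 nM active affinity-purified piRISC with one synthetic guide reacted in HEPES–potassium acetate buffer at 33 °C for 0–8 or 0–960 min, with or without 500 nM GTSF1 partner protein. Uncleaved targets were sequenced and normalised to depth and to weakly complementary targets. A burst-and-steady-state fit provided the pre-steady-state cleavage rate.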
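Also: 1 nM active piRISC with 0.1 nM target library at 33 °C single turnover.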

Sequence | pre-steady-state target cleavage rate
UAGUGACUCACCUUCAUCUGAGAGAUUAACA | 0.0219 ± 0.0075
UAGUCUGACACCUUGUCUGAGAGAUUAACA | 0.0846 ± 0.0099
UAGUGACAGUCCUUCUCCGAGAGAUUAACA | 0.0139 ± 0.0061
UAGUCUGUCACCUUCUCUCAGAGAUUAUCA | 0.0396 ± 0.012
UAGUGACAGUGGAAGAGUGAGAGUAUAACA | < 0.0001
UAGUGAGUCACGUUCUCUGACAGAUUAACA | 0.0319 ± 0.0055
UAGUGACAGUGGAAGUCUGUGACAUUAACA | < 0.0001
UAGUCUGCUCACCUUCUCUGAGAGAUUAACA | 0.198 ± 0.011
UAGUGUGUCACGAACUCUGAGAGAUAUUGA | < 0.0001
UAGUGACAGUGGUUCUCUGAGUCUUUAACA | < 0.0001
UAGUGACAGUCCUCCUCUGAGAGAUUAACA | 0.0807 ± 0.0063
UAGUGACAGUCCUUCUCUGAGAGAAUAUGA | < 0.0001
UAGUGACAGACCUACUCUGAGAGAUUUACA | 0.0238 ± 0.0093
UAGUCUGUGCACCUUCUCUGAGAGAUUAACA | 0.143 ± 0.016
UAGUGUGUCACCUUCUCUGAGUAGAUUAACA | 0.0159 ± 0.007
UAGUGACAGACCUUCUCUGAGAGAUAUACA | 0.0167 ± 0.0063
UAGUGACUCACGUUCUCAGAGAGAUUAACA | 0.0591 ± 0.0053
UAGUGACAGACCUUCUCUGAGAGAGUUAACA | 0.133 ± 0.027
UAGUCUGUCACCUUCUCUGAAAGAUUAACA | 0.0788 ± 0.0062
UAGUGACAGUCCUUGUCAGAGAGAUUAACA | 0.00758 ± 0.0035
UAGUGACAGUGGAAGAGUGAGACAUUAUCA | < 0.0001
UAGUGUGUGACCUUCUCAGAGAGAUUAACA | 0.112 ± 0.015
UAGUGACACACCUUCUCUGAGACGAUUAACA | 0.0544 ± 0.01
UAGUGACUGACCUUCUCUGAGAGAUAAACA | 0.0552 ± 0.013

Sequence | pre-steady-state target cleavage rate
UAGUGACACACCUUCUCUGUGAGAUUUACA | 0.0492 ± 0.0084
UAGUGACAGUGGAAGACUGAGAGAAUUAACA | < 0.0001
UAGUGACAGUGCUUCUCUGAGAGAUUGAACA | 0.0897 ± 0.018
UAGUCUGUCAGCUUGUCUGAGAGAUUAACA | 0.0411 ± 0.0057
UAGUGACACACCAUGUCUGAGAGAUUAACA | 0.0751 ± 0.0098
UAGUGACUCACCUUCUGUGAGACAUUAACA | 0.0336 ± 0.0082
UAGUGAGUCACACUUCUCUGAGAGAUUAACA | 0.088 ± 0.0088
UAGUGACAGACCAUCACUGAGAGAUUAACA | 0.0273 ± 0.0059
UAGUGACACACCAUCUCUGAGAGAUUAAGA | 0.00883 ± 0.004
UAGUGACAGUCCUUCUCUGAGAGCAUUAACA | 0.063 ± 0.0057
UAGUGACUGUGCUUCUCUGAGAGAUUAAGA | 0.0537 ± 0.011
UAGUGUGUCACCUUCUCUGAAGAGAUUAACA | 0.0134 ± 0.0046
UAGUGAGUCACGUUGUCUGAGAGAUUAACA | 0.0943 ± 0.011
UAGUGACAGUGCUUCGUCUGAGAGAUUAACA | 0.00406 ± 0.0031
UAGUGACAGACCUUCUCUGUGAGAUUAACA | 0.031 ± 0.0046
UAGUGACUCACCUUCUCUCUGAGAUUAACA | 0.0048 ± 0.0024
UAGUGAGUCACCUUCUCAGACAGAUUAACA | 0.0343 ± 0.0095
UAGUCUGUCACCUUCUCUGUCAGAUUAACA | 0.0106 ± 0.0032
UAGUGAGUCACCUUGUCUGAGACAUUAACA | 0.0522 ± 0.016
UAGUCUGUGACCUUCUCUCAGAGAUUAACA | 0.0415 ± 0.0042
UAGUGACAGUCCUUCUCUGAGAGAUGUAACA | 0.112 ± 0.026
UAGUGAGUCACCUACUCUGAGAGAUUAUGA | 0.0554 ± 0.018
UAGUGACAGUCCUUCUCUGUGAGAUUUACA | 0.0221 ± 0.0037
UAGUGAGUCACCUCCUCUGAGAGAUUAACA | 0.223 ± 0.012

Sequence | pre-steady-state target cleavage rate
UAGUGAGUCACCUAGACUGAGAGAUUAACA | 0.0595 ± 0.0067
UAGUCUGUCAGCCUUCUCUGAGAGAUUAACA | 0.0883 ± 0.017
UAGUGACAGUCCUUCUCUGAGAGAUUAAUA | 0.0418 ± 0.0083
UAGUCUGUUCACCUUCUCUGAGAGAUUAACA | 0.215 ± 0.014
UAGUCUGUCACCUUCUCUGUAGAGAUUAACA | 0.0114 ± 0.0037
UAGUGACAGAGCUUCACUGAGAGAUUAACA | 0.0596 ± 0.012
UAGUGACACACCUUCUCUGAGAGAUUCAACA | 0.244 ± 0.061
UAGUGUGUCACCUUCUGUGAGAGAUUAACA | 0.185 ± 0.015
UAGUGACACACCUACUCAGAGAGAUUAACA | 0.0526 ± 0.0091
UAGUGACAGACCUUCUUCUGAGAGAUUAACA | 0.00858 ± 0.0034
UAGUGUGUCACCUUGUGUGAGAGAUUAACA | 0.115 ± 0.01
UAGUGAGUCACCUUCGUCUGAGAGAUUAACA | 0.0714 ± 0.01
UAGUGACUCACGUACUCUGAGAGAUUAACA | 0.0384 ± 0.0057
UAGUGUCACACCUUCUCUGAGAGAUUAACA | 0.163 ± 0.017
UAGUCUGACACCUUCUCUGAGACAUUAACA | 0.024 ± 0.0028
UAGUGAGUCACCUACUCAGAGAGAUUAACA | 0.0771 ± 0.0088
UAGUGACACACCUUCUCUGACGAGAUUAACA | 0.00569 ± 0.0025
UAGUGACAGUCCUUCUCUCAGAGUUUAACA | 0.00328 ± 0.0032
UAGUCUCUCACCUUGUCUGAGAGAUUAACA | 0.0068 ± 0.0039
UAGUGACAGUGCUUCUCUGAGAGAUUAAA | 0.00274 ± 0.0026
UAGUGUGUGACCUUCUCUGAGAGAUUAUGA | 0.0165 ± 0.007
UAGUGAGUCACCUUGUCUGACAGAUUAACA | 0.0434 ± 0.013
UAGUGACUCACCAUCUGUGAGAGAUUAACA | 0.0783 ± 0.0062
UAGUGACAGACCUUGUCUGACAGAUUAACA | 0.0121 ± 0.0036
